According to PubChem BioAssay AID662 (National Center for Advancing Translational Sciences (NCATS), 2007):
In all, about 71,000 compounds went through this assay and about 1,800 (2.5%) were called active. The shares of active, inactive and inconclusive entries below differ from those in the screen. Calls come from the whole dose curve; as a rule, active = well fitted activation curve with a large enough effect in the signal ratio, with a control signal flat (not every such curve was filed as active); inconclusive = small, poorly fitted or top-dose-only effect, or effect the other way, or a change in a side signal; inactive = flat fitted curve, though single readings scatter; the % refers to the signal ratio. Potencies beside an inconclusive call are fits to weak or partial responses and may not hold up.
Potency is the fitted concentration of half-maximal effect; tags give direction and shape of the fitted curve.

Test: Cell signaling CRE-BLA (Fsk stim); for activity change, negative = inhibition: % of control where 0% means no effect
Details: CHO CRE-bla reporter (cAMP response element driving beta-lactamase), forskolin EC10, beta-lactamase ratio; activity change, negative = inhibition: at 38.2 µM (top of the series) unless noted
How it was run: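 CHO CRE-bla cells, overnight plating in Opti-MEM with 0.5% dialyzed FBS; cpd titration + EC10 NKH 477, 3 h 37 °C; CCF4 2 h RT; ex 405/em 460 vs 530 ratio → %Activity, AC50.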
In the case of `Cc1cc(S(=O)(=O)NCCN(C)C)c(C)s1`, the Potency is reported as active: 12.6 µM. In the case of `N#Cc1nc(-c2ccco2)oc1NCCc1ccccc1`, the “activity change, negative = inhibition” value is reported as inactive: 18.5%. With `c1cncc(C2Nc3ccccc3-c3nc4ccccc4n32)c1` (stereo not drawn) the activity change, negative = inhibition was inconclusive: 28.2%. For `CCOC(=O)c1oc2ccccc2c1NC(=O)c1cc(OC)cc(OC)c1`, the Potency was active: 10 µM. For `CCOc1ccc2nc3c(cc2c1)CN(CCCO)C(=NCCOC)S3`, the Potency was inconclusive: 3.16 µM [rising, single point]. In the case of `Cc1cc(NC(=O)CSc2nc3c(c(=O)n2-c2ccc(Br)cc2)SCC3)no1`, the activity change, negative = inhibition is reported as inconclusive: -7.36%. In the case of `Cc1cccc2nc(=S)n(C(=O)c3ccco3)n12`, the activity change, negative = inhibition is reported as inconclusive: 17.8%. In the case of `COC(=O)C1=CN(C)C=C(C(=O)OC)C1c1ccc(Cl)cc1Cl`, the Potency is reported as inconclusive: 12.6 µM [rising, partial curve]. For `COc1ccc(CCNC(=O)C2CCN(C(=O)N(C)C)CC2)cc1OC`, the activity change, negative = inhibition was inconclusive: 10.1%. With `O=C(C1CC1)N1CCc2cc(S(=O)(=O)NCCC3=CCCCC3)ccc21` the Potency was inconclusive: 10 µM [rising, single point]. In the case of `Cc1ccc(S(=O)(=O)OCC(=O)O)cc1`, the activity change, negative = inhibition is reported as inactive: -4.88% [at 7.6 µM]. For `CC(C)c1nc2oc3c(N4CCN(C)CC4)ncnc3c2c2c1CCC2`, the Potency was inconclusive: 7.94 µM [rising, partial curve]. For `CCc1ccc2c(c1)c1nc(C)sc1n2CC`, the activity change, negative = inhibition was inconclusive: -3.82%. In the case of `COC(=O)c1ccc(COC(=O)c2c(C)nn(Cc3ccccc3Cl)c2Cl)o1`, the activity change, negative = inhibition is reported as inconclusive: -6.57%. With `Cn1c(=O)c(=O)n(C)c2cc(S(=O)(=O)N3CCc4ccccc43)ccc21` the Potency was inconclusive: 1 µM [falling, full curve]. With `N#Cc1c(C(F)(F)F)cc(-c2ccco2)nc1SCc1ccccn1` the Potency was inconclusive: 25.1 µM [falling, single point]. For `COc1ccc(S(=O)(=O)N2CC(O)CC2C(=O)OCC(=O)Nc2ccc(Cl)cn2)cc1` (stereo not drawn), the Potency was inconclusive: 5.01 µM [falling, single point]. With `c1ccc2c(c1)nc(NC1CCCCC1)c1nncn12` the Potency was inconclusive: 12.6 µM [rising, partial curve]. For `CCn1c(SCc2nnc(-c3ccccc3)o2)nc2c1c(=O)n(C)c(=O)n2C`, the “activity change, negative = inhibition” value was inactive: -1.41%. In the case of `Cc1cc(C(=O)NC(C)c2ccncc2)cs1` (stereo not drawn), the “activity change, negative = inhibition” value is reported as inactive: -1.5%. With `O=C(NC1=NCCS1)c1ccc2c(c1)C(=O)N(Cc1ccco1)C2=O` the activity change, negative = inhibition was inconclusive: 4.9%. With `CCCCCn1c(=NC(C)=O)c(C#N)cc2c(=O)n3cccc(C)c3nc21` the Potency was active: 3.98 µM. With `COc1ccc(CCNC(=O)CCN2C(=O)C3CC=CCC3C2=O)cc1OC` (stereo not drawn) the Potency was inconclusive: 10 µM [rising, partial curve].
